Some of the results follow. Many values rest on one well or one pass, so single values are uncertain.
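Note: cell number obtained by counting DAPI-stained nuclei in high-throughput microscope images with image analysis software, screen run in 1,536-well plates.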

For the test, the system named is WM115. Put plainly: cell count relative to DMSO control; melanoma cells; higher = more viable cells. As to conditions: library dose: low library concentration; 72 h.
With `Clc1ccc(Nc2nnc(Cc3ccncc3)c3ccccc23)cc1` [vatalanib] + O=C(Oc1ccc([N+](=O)[O-])cc1)N1CCC(C(O)(c2ccc3c(c2)OCO3)c2ccc3c(c2)OCO3)CC1 [JZL184] (first compound 2 µM, partner dose 1 µM), the cell count came out at 90.9%.

`COc1cc2ncnc(Nc3ccc(Oc4ccccc4)cc3)c2cc1OC` + O=C(Oc1ccc([N+](=O)[O-])cc1)N1CCC(C(O)(c2ccc3c(c2)OCO3)c2ccc3c(c2)OCO3)CC1 [JZL184] (first compound 2 µM, partner dose 1 µM) had a cell count of 107%.

`Nc1ccn([C@@H]2O[C@H](CO)[C@@H](O)C2(F)F)c(=O)n1` [gemcitabine] + C[As](C)SC[C@H](NC(=O)CC[C@H](N)C(=O)O)C(=O)NCC(=O)O [Darinaparsin] (first compound 0.0004 µM, partner dose 0.4 µM) came in with a cell count of 100%.

For `CC(C)C[C@H](NC(=O)[C@H](Cc1ccccc1)NC(=O)c1cnccn1)B(O)O` [Bortezomib] + O=C(Oc1ccc([N+](=O)[O-])cc1)N1CCC(C(O)(c2ccc3c(c2)OCO3)c2ccc3c(c2)OCO3)CC1 [JZL184] (first compound 0.001 µM, partner dose 1 µM), the cell count stood at 102%.

Compound `c1cc(-c2cnn3cc(-c4ccc(OCCN5CCCCC5)cc4)cnc23)ccn1` [Dorsomorphin] + O=C(Oc1ccc([N+](=O)[O-])cc1)N1CCC(C(O)(c2ccc3c(c2)OCO3)c2ccc3c(c2)OCO3)CC1 [JZL184] (first compound 0.4 µM, partner dose 1 µM) yielded a cell count of 100%.

On to `Oc1cc(-c2nc(-c3ccccc3)[nH]c2-c2ccncc2)ccc1Cl` + O=C(Oc1ccc([N+](=O)[O-])cc1)N1CCC(C(O)(c2ccc3c(c2)OCO3)c2ccc3c(c2)OCO3)CC1 [JZL184] (first compound 0.2 µM, partner dose 1 µM), for which the cell count was found to be 75%.

`Nc1ccn([C@@H]2O[C@H](CO)[C@@H](O)C2(F)F)c(=O)n1` [gemcitabine] + C/C(O)=C(\C#N)C(=O)Nc1cc(Br)ccc1Br [LFM-A13] (first compound 0.0004 µM, partner dose 2 µM) returned a cell count of 98%.

Compound `CC(C)C[C@H](NC(=O)[C@H](Cc1ccccc1)NC(=O)c1cnccn1)B(O)O` [Bortezomib] + C/C(O)=C(\C#N)C(=O)Nc1cc(Br)ccc1Br [LFM-A13] (first compound 0.001 µM, partner dose 2 µM) registered a cell count of 97.6%.

`CO[C@H]1C[C@@H]2CC[C@@H](C)[C@@](O)(O2)C(=O)C(=O)N2CCCC[C@H]2C(=O)O[C@H]([C@H](C)C[C@@H]2CC[C@@H](OCCO)[C@H](OC)C2)CC(=O)[C@H](C)/C=C(\C)[C@@H](O)[C@@H](OC)C(=O)[C@H](C)C[C@H](C)/C=C/C=C/C=C/1C` [everolimus] + Cc1cc(SCc2sc(-c3ccc(C(F)(F)F)c(F)c3)nc2C)ccc1OCC(=O)O [GW0742] (first compound 0.02 µM, partner dose 2 µM) registered a cell count of 89.6%.

Compound `Nc1ccn([C@@H]2O[C@H](CO)[C@@H](O)C2(F)F)c(=O)n1` [gemcitabine] + O=C(Oc1ccc([N+](=O)[O-])cc1)N1CCC(C(O)(c2ccc3c(c2)OCO3)c2ccc3c(c2)OCO3)CC1 [JZL184] (first compound 0.0004 µM, partner dose 1 µM) came in with a cell count of 97.6%.

`Cc1nc(Nc2ncc(C(=O)Nc3c(C)cccc3Cl)s2)cc(N2CCN(CCO)CC2)n1` [dasatanib] + Cc1cc(SCc2sc(-c3ccc(C(F)(F)F)c(F)c3)nc2C)ccc1OCC(=O)O [GW0742] (first compound 0.004 µM, partner dose 2 µM) showed a cell count of 65%.

On to `COCC[n+]1c2c(n(Cc3cnccn3)c1C)C(=O)c1ccccc1C2=O` + Cc1cc(SCc2sc(-c3ccc(C(F)(F)F)c(F)c3)nc2C)ccc1OCC(=O)O [GW0742] (first compound 0.0004 µM, partner dose 2 µM), for which the cell count was 104%.

Compound `Cc1cc(Nc2cc(N3CCN(C)CC3)nc(Sc3ccc(NC(=O)C4CC4)cc3)n2)n[nH]1` [Tozasertib] + C/C(O)=C(\C#N)C(=O)Nc1cc(Br)ccc1Br [LFM-A13] (first compound 0.006 µM, partner dose 2 µM) had a cell count of 75.4%.

For `Cc1cc(Nc2cc(N3CCN(C)CC3)nc(Sc3ccc(NC(=O)C4CC4)cc3)n2)n[nH]1` [Tozasertib] + C[As](C)SC[C@H](NC(=O)CC[C@H](N)C(=O)O)C(=O)NCC(=O)O [Darinaparsin] (first compound 0.006 µM, partner dose 0.4 µM), the cell count was determined as 99.3%.

Compound `COc1ccc(COc2ccc(Cc3cnc(N)nc3N)cc2OC)cc1` + C/C(O)=C(\C#N)C(=O)Nc1cc(Br)ccc1Br [LFM-A13] (first compound 1 µM, partner dose 2 µM) yielded a cell count of 101%.

The compound `O=C(O)c1ccc2c(c1)nc(Nc1cccc(Cl)c1)c1ccncc12` + O=C(Oc1ccc([N+](=O)[O-])cc1)N1CCC(C(O)(c2ccc3c(c2)OCO3)c2ccc3c(c2)OCO3)CC1 [JZL184] (first compound 0.4 µM, partner dose 1 µM) showed a cell count of 107%.

`COc1ccc(COc2ccc(Cc3cnc(N)nc3N)cc2OC)cc1` + Cc1cc(SCc2sc(-c3ccc(C(F)(F)F)c(F)c3)nc2C)ccc1OCC(=O)O [GW0742] (first compound 1 µM, partner dose 2 µM) registered a cell count of 108%.

With `Clc1ccc(Nc2nnc(Cc3ccncc3)c3ccccc23)cc1` [vatalanib] + C[As](C)SC[C@H](NC(=O)CC[C@H](N)C(=O)O)C(=O)NCC(=O)O [Darinaparsin] (first compound 2 µM, partner dose 0.4 µM), the cell count worked out at 97.3%.

Regarding `CC(C)C[C@H](NC(=O)[C@H](Cc1ccccc1)NC(=O)c1cnccn1)B(O)O` [Bortezomib] + N.N.[Cl][Pt][Cl] [cisplatin] (first compound 0.001 µM, partner dose 1.6 µM), the cell count is 107%.

For the origin of these results see the supplement of paper PMC4604168 (melanoma cell lines).
